Measurements published in PMC6842947, “Enhanced Antiviral Activity of Human Surfactant Protein D by Site-Specific Engineering of the Carbohydrate Recognition Domain” (Frontiers in Immunology, 2019).

Assays:
Assay in all cases: Saccharide competition of SP-D binding to BSA-mannan coated plates
Conditions in all cases: averages of three experiments, SD in parentheses
[1] = molecular target: T1, pSP-D (Sus scrofa, UniProt Q9N1X4); set-up: species or system porcine
T1 sequence (Q9N1X4 21-378): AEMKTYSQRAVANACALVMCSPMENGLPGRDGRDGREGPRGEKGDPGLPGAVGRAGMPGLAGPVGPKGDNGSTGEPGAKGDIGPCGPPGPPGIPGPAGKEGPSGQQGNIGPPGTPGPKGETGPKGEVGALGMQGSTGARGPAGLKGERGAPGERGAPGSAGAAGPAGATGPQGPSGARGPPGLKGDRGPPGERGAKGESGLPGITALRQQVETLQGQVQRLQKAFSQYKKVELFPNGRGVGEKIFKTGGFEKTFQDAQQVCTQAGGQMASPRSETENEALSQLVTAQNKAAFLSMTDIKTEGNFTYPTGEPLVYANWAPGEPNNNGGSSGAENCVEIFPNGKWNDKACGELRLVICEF

[2] = molecular target: T2, iSP-D (Homo sapiens, UniProt P35247, D344N/D350N/E309K/INS346GSS/K307Q/V271E)
T2 construct: Full-length recombinant iSP-D was generated based upon the full-length hSP-D cDNA clone; made in house; host or cells: HEK293 (HEK293E, transient transfection)
T2 sequence (P35247 with tags, fused parts or gaps V271E/K307Q/E309K/D344N/INS346GSS/D350N): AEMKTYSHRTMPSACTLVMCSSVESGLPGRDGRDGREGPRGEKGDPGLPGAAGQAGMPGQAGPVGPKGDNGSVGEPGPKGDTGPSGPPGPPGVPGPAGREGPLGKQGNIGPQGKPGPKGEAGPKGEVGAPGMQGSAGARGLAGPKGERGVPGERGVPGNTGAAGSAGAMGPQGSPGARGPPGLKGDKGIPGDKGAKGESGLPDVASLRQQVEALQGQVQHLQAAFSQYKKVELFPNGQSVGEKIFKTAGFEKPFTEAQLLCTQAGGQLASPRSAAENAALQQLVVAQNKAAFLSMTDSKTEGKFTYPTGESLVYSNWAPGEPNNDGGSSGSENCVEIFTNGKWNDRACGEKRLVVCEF

[3] = molecular target: T3, hSP-D (Homo sapiens, UniProt P35247)
T3 construct: The full-length recombinant collectins pSP-D and hSP-D were constructed as published; made in house; host or cells: HEK293 (HEK293E, transient transfection)
T3 sequence (P35247 21-375): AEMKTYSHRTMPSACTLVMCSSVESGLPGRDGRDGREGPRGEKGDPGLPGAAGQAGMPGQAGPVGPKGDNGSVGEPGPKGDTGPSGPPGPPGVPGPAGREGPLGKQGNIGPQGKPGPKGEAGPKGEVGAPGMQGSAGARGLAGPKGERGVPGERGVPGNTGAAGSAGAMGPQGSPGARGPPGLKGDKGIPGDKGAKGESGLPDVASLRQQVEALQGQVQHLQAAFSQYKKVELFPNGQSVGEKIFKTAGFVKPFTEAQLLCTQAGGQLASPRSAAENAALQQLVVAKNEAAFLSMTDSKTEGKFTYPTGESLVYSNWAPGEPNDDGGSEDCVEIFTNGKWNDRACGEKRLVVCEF

Compound | IC50 [1] | IC50 [2] | IC50 [3]
OC[C@H]1O[C@H](O[C@H]2[C@H](O)[C@@H](O)C(O)O[C@@H]2CO)[C@H](O)[C@@H](O)[C@@H]1O (mixture of isomers) [Maltose, maltose] | 2 mM | 4.1 mM | 3.3 mM
O[C@H]1[C@H](O)[C@@H](O)[C@H](O)[C@@H](O)[C@H]1O [Myo-Inositol, myo-inositol] | 0.9 mM | 17.3 mM | 5.6 mM
OC[C@H]1OC(O)[C@@H](O)[C@@H](O)[C@@H]1O (stereo partly drawn) [D-Mannose, D-mannose] | 4.6 mM | 5.3 mM | 3.6 mM
C[C@H](O)[C@@H](O)[C@@H](O)[C@H](O)C=O [L-Fucose, L-fucose] | 2.2 mM | 4.3 mM | 3.8 mM
